From patent publication US11318154B2 (priority 2019, dated 2022) come the findings set out here.

Test [1] has as its system Caco-2 cells. The note with it: Caco-2 cells pretreated with 100-800 μM, then TcdB 0.001 nM to 5 nM; vs control buffer.
In test [2] the test system is Caco-2 cells. The note with it: Caco-2 cells pretreated, TcdB 18 h.

Consider `CC1(C)[C@@H](O[C@H]2O[C@H](C(=O)O)[C@@H](O)[C@H](O)[C@H]2O[C@@H]2O[C@H](C(=O)O)[C@@H](O)[C@H](O)[C@H]2O)CC[C@]2(C)[C@H]3C(=O)C=C4[C@@H]5C[C@@](C)(C(=O)O)CC[C@]5(C)CC[C@@]4(C)[C@]3(C)CC[C@@H]12` [glycyrrhizin], for which, in test [1], the caspase activation entry is on record as “reduced caspase activation”. In addition, the “onset of TcdB-induced cell rounding” value in test [2] is “delayed the onset”.
